Results taken from PubChem BioAssay AID485344 (National Center for Advancing Translational Sciences (NCATS), 2010).
The campaign covered roughly 340,000 compounds. About 6,900 (2%) were called active. Rule as the data show it: active = inhibition above about 30%; inactive = below that, where a call was filed. This is a selection; strong and weak results do not stand in their true shares. The source gives no active or inactive call for entries shown without one.

Target: D(2) dopamine receptor (Homo sapiens) (UniProt P14416)
Chain of UniProt P14416 (P14416 whole entry, looked up): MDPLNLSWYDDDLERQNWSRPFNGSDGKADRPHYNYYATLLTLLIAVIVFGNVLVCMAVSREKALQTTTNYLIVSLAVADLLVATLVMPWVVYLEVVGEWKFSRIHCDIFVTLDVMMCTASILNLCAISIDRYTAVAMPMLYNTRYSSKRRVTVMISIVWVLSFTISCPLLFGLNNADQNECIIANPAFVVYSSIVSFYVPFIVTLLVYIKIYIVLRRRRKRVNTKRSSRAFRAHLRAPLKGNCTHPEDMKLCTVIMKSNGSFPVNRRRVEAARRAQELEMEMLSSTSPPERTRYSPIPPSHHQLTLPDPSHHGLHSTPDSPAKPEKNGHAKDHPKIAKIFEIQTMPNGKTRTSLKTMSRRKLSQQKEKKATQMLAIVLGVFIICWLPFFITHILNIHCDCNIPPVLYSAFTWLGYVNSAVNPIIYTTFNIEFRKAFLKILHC
Assay: HTS Assay for Allosteric Antagonists of the Human D2 Dopamine Receptor: Primary Screen for Antagonists; also: 0% is about no effect
Conditions: HEK293 TREx D2 cells, calcium flux, dopamine EC80; at 10 µM; stronger effect = higher value
Summary of the method: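 Calcium flux kinetic readout in an inducible HEK293 TREx D2 line plated overnight at 30 C. After 180 s compound exposure, an EC80 dopamine challenge follows with another 180 s kinetic read to detect antagonism.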

| SMILES | inhibition |
| --- | --- |
| O=C(Cn1cc(SCc2ccc(F)cc2)c2ccccc21)N1CCCC1 | 5.02% |
| CCN(CC)S(=O)(=O)c1ccc2c(c1)c(=O)c(C(=O)N1CCN(c3cc(C)ccc3C)CC1)cn2C | 13.3% |
| CCc1nnc(NC(=O)c2nc(SCc3ccc(F)cc3)ncc2Cl)s1 | 2.4% |
| CCOc1ccc(OCC)c(NS(=O)(=O)c2ccc3c(c2)CCCN3C(C)=O)c1 | -22.6% |
| CCC12CCCN3CCc4c(n(c5ccccc45)C(O)(C(=O)OC)C1)C32 (configuration not stated) | active: 51% |
| CCCCn1c(C2CC(=O)N(c3ccc(OCC)cc3)C2)nc2ccccc21 (configuration not stated) | -3.5% |
| O=C(OCC1CCCO1)c1ccc2c(c1)N(Cc1c(F)cccc1Cl)C(=O)c1ccccc1S2(=O)=O (configuration not stated) | 6.14% |
| COc1ccc(-n2nc(C(=O)N3CCN(c4cccc(C)c4)C(C)C3)c3c4ccccc4n(C)c3c2=O)cc1Cl (configuration not stated) | -27.3% |
| O=C(Cn1nc2c(cc1=O)CCCC2)NCc1ccccc1 | 13.9% |
| Cc1ccccc1-c1noc(-c2ccc(NC3CCCC3)c([N+](=O)[O-])c2)n1 | -4.46% |
| COc1cccc(-n2c(=O)c3c4c(sc3n(Cc3ccccc3C#N)c2=O)CCCC4)c1 | -2.09% |
| O=S(=O)(c1ccc2nc(Nc3ccc(Br)cc3F)ccc2c1)N1CCCC1 | 0.431% |
| COc1ccccc1NC(=O)CN1CCN(c2ccccn2)CC1 | active: 50.1% |
| COc1ccc(OC)c(CNC(=O)c2cnc(N(C)C)nc2)c1 | -24.3% |
| CC(=O)Nc1cccc(-c2nnc(SCC(=O)c3ccc([N+](=O)[O-])cc3)o2)c1 | -6.13% |
| CCOc1ccccc1/C=C/c1onc(C)c1S(=O)(=O)N1CCC(C(=O)N2CCCCC2)CC1 | 8.34% |
| COc1cc(CN(C(=O)c2ccc(C)cc2)c2ccccn2)cc(OC)c1OC | -13.7% |
| Cc1ccc(-n2nc(C)c3c(C(=O)Nc4ccc(C)cc4Cl)cc(C)nc32)cc1 | 11.6% |
| CCOC(=O)CSc1nc(-c2ccc(OC)cc2)cc(C(F)(F)F)c1C#N | -2.12% |
| CN(C(=O)CSc1nc2ccc(NC(=O)c3ccccc3)cc2s1)c1ccccc1 | -7.64% |
| COc1ccc(Cn2c(NCC(C)C)nc3c2c(=O)n(C)c(=O)n3C)cc1 | 4.41% |
| Cc1ccc(C2=NN(CCC(=O)NCCc3cccc(C)c3)C(=O)CC2)cc1 | -2.86% |
| Cc1cccc(CNC(=O)CCCN2C(=O)c3cccnc3Oc3ccccc32)c1 | -8.64% |
| COc1ccc(-c2noc(-c3ccc(NCc4ccco4)c([N+](=O)[O-])c3)n2)cc1OC | 3.89% |

| SMILES | inhibition |
| --- | --- |
| CCc1ccc(N2CC(c3nc4ccccc4n3Cc3ccccc3C)CC2=O)cc1 (configuration not stated) | 5.27% |
| Cc1ccc(S(=O)(=O)N(C)C)cc1NC(=O)CSc1ncc(C(F)(F)F)cc1Cl | active: 37.2% |
| CCOc1ccc(C(=O)NCCc2sc(-c3cccc(F)c3)nc2C)cc1OCC | 19% |
| O=C(COc1ccccc1)NCCS(=O)(=O)N1CCN(c2ccccc2)CC1 | active: 77.4% |
| O=C(Nc1ccc(OCc2cc(=O)n3c4c(sc3n2)CCCC4)cc1)c1ccc(F)cc1 | 6.08% |
| COC(=O)Cc1c(C)c2ccc3c(c2oc1=O)CN(Cc1ccc(C)cc1)CO3 | 14.4% |
| COc1ccc(-n2nnnc2SCC(=O)NCCc2ccccc2)cc1 | 2.12% |
| Cc1ccccc1-c1noc(CSc2nc(-c3ccc(F)cc3)cc(=O)[nH]2)n1 | 0.775% |
| CCc1ccccc1NS(=O)(=O)c1ccc2[nH]cc(C(=O)NC3CCCC3)c(=O)c2c1 | -11.8% |
| NC(=O)C1CCN(c2ncnc3c2cnn3-c2cccc(Cl)c2)CC1 | 10.2% |
| C/C(=N\NC(=S)Nc1cccc(C)c1)c1ccco1 | active: 67.2% |
| CCOc1ccc(CCNC(=O)CCn2c(=O)c3cccn3c3ccc(F)cc32)cc1 | 6.95% |
| CC(C)COc1ccc(C(=O)Nc2onc3c2CCCC3)cc1 | 19.6% |
| Cc1ccc(NC(=O)Cn2nc(C(F)(F)F)c3c2CCC3)cc1C | 5.38% |
| O=C(Nc1cccc(C(F)(F)F)c1)C1CCN(S(=O)(=O)c2cccc3nsnc23)CC1 | 19.4% |
| COc1ccc(-c2cnc(C)o2)cc1S(=O)(=O)Nc1cccc(C(F)(F)F)c1 | 17.1% |
| CCOC(=O)c1cnn2c(C(F)(F)F)cc(-c3ccc(Br)cc3)nc12 | -17.6% |
| CCC1Oc2ccc(C)cc2N(CC(=O)NCCc2ccccc2)C1=O (configuration not stated) | -15.5% |
| CCOC(=O)c1cnc2ccc(OC(F)(F)F)cc2c1Nc1ccccc1C(=O)O | -17.1% |
| Cc1ccc(NC(=O)CCCN2C(=O)COc3ccc(C)cc32)c(Cl)c1 | 19.3% |
| COc1cccc(/C=C/c2nc(C#N)c(N3CCCCCC3)o2)c1 | -1.51% |
| CCc1ccc2nc(N(Cc3cccnc3)C(C)=O)sc2c1 | -5.74% |
| CCOC(=O)c1ccc(CN(Cc2ccc(Cl)cc2Cl)S(=O)(=O)c2ccc(F)c(C)c2)cc1 | -12.7% |
